Test results taken from article PMC12136788.
Substitutions are numbered along the chain they refer to. The list shows a part of the results.

T1: UNK ZnF1-3 (human, UniProt Q9C0B0 31-174)
T1 sequence: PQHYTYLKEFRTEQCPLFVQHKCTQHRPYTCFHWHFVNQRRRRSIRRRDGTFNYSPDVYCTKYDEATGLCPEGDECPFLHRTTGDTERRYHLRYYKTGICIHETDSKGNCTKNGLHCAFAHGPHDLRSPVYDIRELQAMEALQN

B1: chr4:115894766:115894767:+_ENSMUSG00000028698_ENSMUST00000030464|mus_hu|mus_mus_mus_hu_True|8_108 (ssRNA)
RNA: GGGAGUUCUACAGUCCGACGAUCUUCACACGGAAAUUGUACUUCGGGUUUUCCAACGGCCAGUACCAGUCCGGCCAAACUACCCGAACAGGGUCCUCCCCCUCUCUCCUACAGAACACAACAAAAUAACAAAAUACUUUCAAGCAACAGAGGAUUGAGCAUCA
B2: chr11:77336104:77336105:-_ENSG00000074201_ENST00000525064|hu_mus|hu_hu_hu_mus_False|58_78 (ssRNA)
RNA: GGGAGUUCUACAGUCCGACGAUCCUCACACAUUGCUGUGAACAUCGCCUCCAAUGCUGAUUUAUCACUGGGCACAAAUCUAAAUUCAGAAAUGGGUUCAACAUCAUCAUUGUCUUCCUCAUCUUCAUCAGAGAGAGGUUCUUUCAACAGAGGAUUGAGCAUCA
B3: chr17:73195629:73195630:+_ENSMUSG00000039770_ENSMUST00000045174|mus_hu|motif|central (ssRNA)
RNA: GGGAGUUCUACAGUCCGACGAUCACGGGUACCACCGAUAUGAUCAAGGAAAAUUCUGCCCAUUUUUAUGGCUGAAGUUCGGAAAACCCUGAGCGGCGGUGAGAUCCGCGGCUGCCAGCGGCUUGUCGCUCUUCAGCUGGUAUGCAACAGAGGAUUGAGCAUCA
B4: chr16:94664741:94664742:+_ENSMUSG00000040785_ENSMUST00000117648|mus_hu|mus_mus_mus_hu_False|58_58 (ssRNA)
RNA: GGGAGUUCUACAGUCCGACGAUCUGGUACUGAUCUUGGUAGCUGAUAUUCAGGAGAAAGGCUGGCCAAGGGUGUAUAAAUGCUAGUGUACUGGGGCAAACCUGGUAACACGUUUAUGUAUGCUGGCGGUGUCUGGGUGAUAUCCAACAGAGGAUUGAGCAUCA
B5: chr10:111893621:111893622:+_ENSG00000148700_ENST00000277900|hu_mus|FALSE|FALSE (ssRNA)
RNA: GGGAGUUCUACAGUCCGACGAUCACCAGGCAGCAGCUGCUAAGGAGCAACAGUAACAACGCUCUGCCAGGGACGGCAGAGUCGGCCAAGCCAGCCACUGCUGAAAAGCUCGGCCGUUUUCGGACAUAUAAAAAGAGAUGAAUUCAACAGAGGAUUGAGCAUCA
B6: 17587103_17598582_181_CDS_ENSMUSG00000015733_ENSMUST00000015877|mouse|control|control (ssRNA)
RNA: GGGAGUUCUACAGUCCGACGAUCAUUAAAAACCUCAUUAAAUUCUCCAGGAGGGGCGUGAAUGAUGAAUUUUGCUGCUAUACGAACCUUCUCCUCAUCGGACAACUGCUCCUCCAGAUCCGCCAUCUUCCUUCUGGCGACAGACAACAGAGGAUUGAGCAUCA
B7: chr9:2804355:2804356:-_ENSG00000080608_ENST00000397885|hu_hu|motif|central (ssRNA)
RNA: GGGAGUUCUACAGUCCGACGAUCUUCCAUCUUGCUCUUAACUCUUUCCACCUAUGUGCUCAGUUUUUCAAGUAGAAUUUCGGUUCCUUUGCUGGUGCUUUUGGUUUUUUCCAAUGUAGGAAUCAAGCUUUUCAGUGCAGCUUUCAACAGAGGAUUGAGCAUCA
B8: chr17:41352247:41352248:+_ENSG00000188554_ENST00000341165|hu_hu|FALSE|FALSE (ssRNA)
RNA: GGGAGUUCUACAGUCCGACGAUCCUCAUCCUCCUCCUCCUCAUCCUCCUCAUCCUCCUCCUCCUCCAUGACAGCUUCUUCCUCAGCGAUAUGGAUAAUCUCCUCCUUCUCAUUUCCAAGUGGUCCUUCAGGCAAGGCAAAUGUCAACAGAGGAUUGAGCAUCA
B9: chr2:91446484:91446485:+_ENSMUSG00000040549_ENSMUST00000099716|mus_hu|FALSE|FALSE (ssRNA)
RNA: GGGAGUUCUACAGUCCGACGAUCCAAUUUCUCAUCUGCCAUGUGUGUGUUGUAGAUGAGUCUUAGCUGCAUAAAAGUGGCUAUCAGAAACUGAUCAAUAUGGCCGGACAUGGCUUCAGCUUUGUCUUCCUGUCUCAGGACCUCCAACAGAGGAUUGAGCAUCA
B10: chr2:47388980:47388981:-_ENSG00000143933_ENST00000272298|hu_mus|motif|central (ssRNA)
RNA: GGGAGUUCUACAGUCCGACGAUCUUCAUCUGUUAACUUCUCGCCAAGGUUUGUCAUCACAUGGCGAAGCUCUGCUGCACGGAUAUAGCCAUUGCCAUCCUUAUCAAACACACGGAAUGCUUCUCUAAUCUCUUCUUCACUGUCCAACAGAGGAUUGAGCAUCA
B11: 112911146_112911266_4521_CDS_ENSMUSG00000036862_ENSMUST00000078482|mouse|control|control (ssRNA)
RNA: GGGAGUUCUACAGUCCGACGAUCGUGCUCGUUCUCGUCCUGCACACGCACCUGCACUCUCAACAGCCGCGCGCCUGCGCCUCCCGGCCCCUCGGCGCGCACGGUGAGCGCGCGCCAGGCUGGCCCAGCCUCGAAGUCCAAGGGCAACAGAGGAUUGAGCAUCA
B12: 142051898_142066100_4030_3pUTR_ENSG00000114127_ENST00000264951|human|control|control (ssRNA)
RNA: GGGAGUUCUACAGUCCGACGAUCAGAUGCUAAAAAGUUCUCAAUUCCAGAGUUAGGCUGCUUAUUGGACAUUUUUUGGGACCAACACUCAGCUUUAGGACUCUUACACUCUUCUUUAAAUUUUCUGUGAGGGUCAUGUUUUCUCAACAGAGGAUUGAGCAUCA
B13: chrX:153994619:153994620:+_ENSG00000130826_ENST00000369550|hu_hu|FALSE|FALSE (ssRNA)
RNA: GGGAGUUCUACAGUCCGACGAUCCCCCACAUACUCUUUGCCUGCACUCUGUUGUGACUUCACCAAGCGAGUGGCUCGUUCUAUGCACACGAUUAAACAACCAGUCACCUUGGGAUCCAGCGUACCACUGUGCCCUGUCUUCUCCAACAGAGGAUUGAGCAUCA
B14: 168347556_168348975_3564_CDS_ENSG00000130396_ENST00000400822|human|control|control (ssRNA)
RNA: GGGAGUUCUACAGUCCGACGAUCCUCCUCAGUGCAGAGGUUUCCAGUAGAGACAGAUGUUAUCUUCGCUGUUGUUCCAGAGGCAUAUGCACUUUUCCCUCCAGGACUAGGAGGCUGAUUUGCUACGUUGGGGCUGGAACGGUGCAACAGAGGAUUGAGCAUCA
B15: chr6:55002191:55002192:+_ENSMUSG00000029777_ENSMUST00000003572|mus_hu|FALSE|FALSE (ssRNA)
RNA: GGGAGUUCUACAGUCCGACGAUCAUGGUCAGCACGAAAACAUUCUCCAUUUUUUACGUCUUUCACCAUGAAGUCAGCAAAUUUGUCUACAUGGCCAGAGGUCUUUAAAACUGGCUCAGGGGUGAGCAUGGUGCAAUCGAUCUCCAACAGAGGAUUGAGCAUCA
B16: chr12:73895003:73895004:+_ENSMUSG00000021096_ENSMUST00000021514|mus_hu|FALSE|FALSE (ssRNA)
RNA: GGGAGUUCUACAGUCCGACGAUCUAACUUUGAUAGUGAUUUAAAGCAGUUCAUAAUUAAAUAUGAGCAUUUUGUACAAGGACAAUUACACUUUACAAAAAAACAAAAUCAUACAACAAAAAUUGCUGGAGUCUGAUUUACAACCAACAGAGGAUUGAGCAUCA
B17: 29314414_29319958_652_CDS_ENSG00000159023_ENST00000356093|human|control|control (ssRNA)
RNA: GGGAGUUCUACAGUCCGACGAUCUGUUUCUGCUUUUGAUUGAGGGCUUUCUUCUUUUACUUCUAUUUUGGAGCACUCUUCAAGUCCUUCUCCUUCCUUAAUUUCAAAAUCUGGAUCUUCUCUGAGUUCUUCCUGAGCAGGCUGCAACAGAGGAUUGAGCAUCA
B18: 79764536_79767469_2262_CDS_ENSG00000148606_ENST00000372371|human|control|control (ssRNA)
RNA: GGGAGUUCUACAGUCCGACGAUCGAUGUACUCAUCACAUUUCUUGUAGCCGGCAUUCAGCAACUCAUACUUGGCCUUCAGCAGUCCUUGGCCAGGUGUGACAUCACCGAUCCCAAUUGAGAAACCACGGUUAGACAGGUAGACCAACAGAGGAUUGAGCAUCA
B19: chr11:77336104:77336105:-_ENSG00000074201_ENST00000525064|hu_mus|hu_hu_hu_mus_False|8_58 (ssRNA)
RNA: B2 RNA with U60C, G130U, A131C, G132A, A133G, G134C, G136A
B20: 88450866_88452941_500_CDS_ENSG00000054983_ENST00000261304|human|control|control (ssRNA)
RNA: GGGAGUUCUACAGUCCGACGAUCCCAUGGCAACCCAAUGAGUGUAAUAUUGGGAUUCCUCUUCUUAGCUUCUUUCAUCAACCACCACUCGUAUCCUCGGAAAUAAUUCUCAUCUAGUGCAUAAUGCAUGUGGGAGGGCUCAGUCAACAGAGGAUUGAGCAUCA
B21: chr5:173380165:173380166:+_ENSG00000113742_ENST00000334035|hu_hu|motif|central (ssRNA)
RNA: GGGAGUUCUACAGUCCGACGAUCCACCCGUUUAUCUAUCUCUCCAUGCUGCAGCUGAACAAAGCGGGCACUGAUAGCAGCGGUGUAACUCUGUUGAUUAGAGAACGCAACUCUCCCAGCUCCUUUUGGGUAUUUUAGCUCAGGCAACAGAGGAUUGAGCAUCA
B22: chr15:25616465:25616466:-_ENSG00000114062_ENST00000438097|hu_hu|motif|central (ssRNA)
RNA: GGGAGUUCUACAGUCCGACGAUCCGCUUUGCAAAAUAAUGGCAAAGCCAUUUCCAGAUAUUCAGGACUGUGGAGAUUUCGGUUCUCCAUUACGAUAAUGAACAAAUUCAGAUAAUUAGGAUCUCGAGAGUAUACAUUGUGAUACAACAGAGGAUUGAGCAUCA

target: T1, UNK ZnF1-3; test: nsRBNS (natural sequence RNA bind-n-seq); RBNS binding buffer (assumed for nsRBNS): 25 mM Tris pH 7.5, 150 mM KCl, 3 mM MgCl2, 0.01% Triton X-100, 500 ug/ml BSA, 20 U/ml SUPERase-In, 4 C; UNK is unkempt and MSI1 is Musashi-1; names of the RNAs are library labels; protein concentration not given here; high values mean tight binding

Binder | binding signal
B1 | 1.05 enrichment R
B2 | 0.887 enrichment R
B3 | 0.75 enrichment R
B4 | 1.04 enrichment R
B5 | 1.13 enrichment R
B6 | 0.78 enrichment R
B7 | 0.32 enrichment R
B8 | 0.793 enrichment R
B9 | 0.726 enrichment R
B10 | 0.609 enrichment R
B11 | 0.76 enrichment R
B12 | 0.671 enrichment R
B13 | 0.906 enrichment R
B14 | 0.843 enrichment R
B15 | 0.825 enrichment R
B16 | 0.866 enrichment R
B17 | 0.371 enrichment R
B18 | 0.831 enrichment R
B19 | 1.02 enrichment R
B20 | 1.21 enrichment R
B21 | 0.86 enrichment R
B22 | 0.56 enrichment R
